From the RNAGym collection of RNA variant scans (doi:10.1093/nar/gkz1192)
The source gives no read counts; variants with many changes may rest on few reads.

B1: CPEB3 Ribozyme (parent)
chain: UAACAGGGGGCCACAGCAGAAGCGUUCACGUCGCAGCCCCUGUCAGAUUCUGGUGAAUCUGCGAAUUCUGCUGUAUAUCUC

Variants of: B1
Experiment: self-cleavage, relative activity (ratio to wild type); higher = more cleavage; in vitro, sequencing
Summary of the method: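 Libraries of CPEB3 self-cleaving ribozyme mutants came from rounds of error-prone PCR and carried barcodes, which DNA sequencing matched to variants. In vitro transcription used T7 RNA polymerase at 37°C for 5 hours, with a further 15 min in DNase I before EDTA stopped the reaction; the ribozymes cleaved during both steps. The RNA was reverse transcribed with template switching and sequenced on Illumina. Relative activity is the cleaved/total read fraction of a variant divided by that of the unmutated ribozyme, averaged over three batches with at least 5 reads.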

| Variant | self-cleavage |
| --- | --- |
| C32U A65U U67G | 0.22 |
| C32U C34G C62U | 0.11 |
| C32U C39U U49C U69C | 0.54 |
| C32U C40G U43A U58C | 0.07 |
| C32U G33A C37A U67C | 0.15 |
| C32U G33A U41A U74A | 0.22 |
| C32U G36A A45U | 0.1 |
| C32U G46U U66A U78A | 0.06 |
| C32U U41A A56G A64G | 0.08 |
| C32U U41A U51A A56G G61U U69C U72A | 0.06 |
| C32U U41C A45G | 0.13 |
| C32U U49C C79U | 0.35 |
| C32U U49G U76C | 0.19 |
| C32U U74C A75U | 0.51 |
| G33A A35C A56U U78C | 0.18 |
| G33A A35C C37U U74C A77G | 0.16 |
| G33A A35C C39A | 0.06 |
| G33A A35G U54C U66C U78C | 0.06 |
| G33A A35U A56G A64U U78C | 0.11 |
| G33A A35U U41C C50G A57G U80C | 0.08 |
| G33A A45G A57G U66C | 0.15 |

| Variant | self-cleavage |
| --- | --- |
| G33A A45G A64U | 0.22 |
| G33A A45G A64U A77G | 0.1 |
| G33A A45G U51A A56G U80C | 0.21 |
| G33A C34U C62U | 0.12 |
| G33A C38U A56U A64G G70A U72A | 0.06 |
| G33A G36A A64U | 0.1 |
| G33A G36A U54C | 0.16 |
| G33A U41A U49C U54A U72A | 0.08 |
| G33A U41A U54C U69G | 0.07 |
| G33A U41C G53C C71U U78A | 0.01 |
| G33A U41G U72C | 0.1 |
| G33A U48A A56G U78G U80C | 0.05 |
| G33A U49C U58C U72G | 0.09 |
| G33A U49C U69C A77G | 0.05 |
| G33A U51A C59U U72A | 0.43 |
| G33A U54C U72C | 0.14 |
| G33A U58C U69C | 0.1 |
| G33A U60A U67C | 0.07 |
| G33A U66C U80C | 0.1 |
| G33A U67C U80C | 0.15 |
| G33A U72G U78C | 0.2 |

| Variant | self-cleavage |
| --- | --- |
| G33C A47U U80C | 0.16 |
| G33C A56G U69A A77G | 0.1 |
| G33C A64G A75G U80A | 0.06 |
| G33C A77U U80A | 0.15 |
| G33C C37U A57G U72A | 0.06 |
| G33C C39A U48C U60C U74C | 0.16 |
| G33C C39A U48C U74C | 0.05 |
| G33C U41A U58A | 0.14 |
| G33C U43C U54C C62U | 0.1 |
| G33C U48C A64G U67C | 0.14 |
| G33C U51A U54A U72A U78C | 0.06 |
| G33C U54C A77U | 0.16 |
| G33C U69C A77G | 0.12 |
| G33U A35U C37G U80C | 0.28 |
| G33U A35U U60C | 0.09 |
| G33U A45C U66A | 0.11 |
| G33U A45U U76C | 0.11 |
| G33U C40U U54C U69C U78A | 0.11 |
| G33U U41A C62U G73A | 0.23 |
| G33U U43C U51G G61A U78C | 0.07 |
| G33U U49C A77U | 0.15 |

| Variant | self-cleavage |
| --- | --- |
| G33U U60G U69C G70A | 0.1 |
| G33U U66A U69C U72C | 0.09 |
| C34A A35G G36C U41C U80C | 0.5 |
| C34A A45U U66C | 0.11 |
| C34A G36U U54C A56G | 0.1 |
| C34A U49C A57G C59A A65G | 0.38 |
| C34A U51C U58C U72C U76A | 0.07 |
| C34G A64G U69A G70C | 0.12 |
| C34G G42A A56U U80A | 0.06 |
| C34G U41A U78C | 0.12 |
| C34G U49C A56G U72C | 0.1 |
| C34G U54G A77C | 0.19 |
| C34G U58A U69A | 0.07 |
| C34U A45G U72C | 0.38 |
| C34U A65G U76C | 0.17 |
| C34U C37U U66C | 0.17 |
| C34U C37U U74C U80C | 0.39 |
| C34U C40U A56G A65G U72C U80A | 0.07 |
| C34U C50U U72C | 0.54 |
| C34U C71G U80G | 0.09 |
